From PMC5836133 come the findings set out here.

The list shows a part of the results. At the low end of the ranking, values are background and their order means little.

This test concerns T1, GST-NbGlk1(82-244).
T1 sequence: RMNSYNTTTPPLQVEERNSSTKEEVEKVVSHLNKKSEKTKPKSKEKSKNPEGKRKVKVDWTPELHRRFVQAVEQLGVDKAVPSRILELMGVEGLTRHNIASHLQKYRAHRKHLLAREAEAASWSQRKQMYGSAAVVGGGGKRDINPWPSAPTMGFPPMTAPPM
Description: protein-binding microarray.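 Also: rank-based score ranging −0.5 to +0.5 with E above 0.45 taken as significant binding.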 To be noted: NbGlk1 is a Golden2-like transcription factor of Nicotiana benthamiana; high values mean tight binding; most listed sequences are background and not binding sites; double strand, one strand shown.
With ATAAAGCC, the binding signal is -0.16 E-score. On to AGAAACAG, for which the binding signal was -0.00113 E-score. Next, ACCCAGCA: -0.257 E-score. With ATTCAGAA, the binding signal was determined as 0.099 E-score. As for ATCGCCCC, the binding signal was found to be 0.191 E-score. The value for ACAACCAC was -0.115 E-score; that for ACTAATCC was -0.00427 E-score; that for ACGGCACA was 0.0429 E-score. The value for CACCCTCA was -0.0729 E-score; that for ACTGAGTG was -0.0461 E-score; that for ATCGACAC was 0.0325 E-score.

Turning to CACTCGGC, the binding signal is -0.204 E-score. On to CAAAGTAG, for which the binding signal was -0.114 E-score. ACTTGACC gave a binding signal of -0.0993 E-score. AGGACCCG registered a binding signal of -0.288 E-score.

On to AGATACGG, for which the binding signal stood at 0.372 E-score.

The sequence AGCCGCAT returned a binding signal of -0.176 E-score.

Turning to ACGCTCGA, the binding signal is -0.0402 E-score.

Regarding AAGCAAAT, the binding signal worked out at 0.207 E-score. As for AATCGTCC, the binding signal was 0.248 E-score. The value for ACGTCTCT was -0.161 E-score. Take AGCTAGTG: the binding signal was -0.1 E-score. AATTGGTA registered a binding signal of 0.0772 E-score. For the sequence ACATCGAT, the binding signal turned out to be 0.241 E-score.

Sequence AAGGCTGC displayed a binding signal of -0.183 E-score. In turn, AATCCGCC displayed a binding signal of 0.372 E-score. The value for AATTACGT was 0.26 E-score; that for AGCTACGA was -0.0607 E-score; that for ATTGTTTA was 0.0143 E-score. The sequence ACGCAAAC registered a binding signal of -0.0569 E-score.

ATCCCCTC registered a binding signal of 0.158 E-score. In the case of AACCGGTG, the binding signal was -0.281 E-score. AAGGAATG registered a binding signal of -0.053 E-score. Consider AAAAGTCG, for which the binding signal is 0.11 E-score. In the case of AATAAATC, the binding signal was found to be 0.253 E-score. On to ATTAAGGC, for which the binding signal is -0.0256 E-score.

On to AGGATATA, for which the binding signal was 0.211 E-score. Next, CAAGATCC: 0.33 E-score; AGGCTGGC: -0.226 E-score; AAGCCTTC: -0.285 E-score. The sequence AACTTAAT came in with a binding signal of -0.0539 E-score. As to AATGCTAG, the binding signal is -0.0722 E-score.

For ATTACGTA, the binding signal was found to be 0.354 E-score.

ACCGGCAT gave a binding signal of -0.0583 E-score. Take CACCTCTG: the binding signal is -0.142 E-score.

As for AATTATAA, the binding signal is 0.243 E-score. In turn, AAATGGCC yielded a binding signal of -0.224 E-score.

ACTGATGC came in with a binding signal of -0.0669 E-score. For ACTAAGGA, the binding signal was -0.0523 E-score. Consider AGTTCGCA, for which the binding signal was -0.0679 E-score. In turn, ATTGGAGG displayed a binding signal of -0.128 E-score. With AGCCGGAG, the binding signal is -0.306 E-score. AACAGAAT showed a binding signal of 0.301 E-score. Sequence ATTTGTTC had a binding signal of 0.112 E-score.

With ACAACCAA, the binding signal came out at 0.0747 E-score. AAACTGTC had a binding signal of -0.122 E-score. Regarding ATTTATGA, the binding signal worked out at 0.182 E-score.

Regarding AGCGGGGA, the binding signal was 0.00918 E-score.

As to CAATTTAA, the binding signal came out at 0.0461 E-score.

With AGTGCCTC, the binding signal was -0.298 E-score. AACCAGCC: the binding signal was -0.113 E-score. The sequence ATCGCATA came in with a binding signal of 0.272 E-score. Regarding AAGAGAAT, the binding signal worked out at 0.321 E-score. Consider ACTCGTGG, for which the binding signal was -0.0478 E-score. Next, ATGGTGCA: 0.00205 E-score; ATATGCAA: 0.29 E-score; AGTTAATG: -0.0381 E-score. As for AGAAGGTC, the binding signal was -0.284 E-score. Regarding AGTGGACC, the binding signal was -0.083 E-score.

AGGTGCCG gave a binding signal of -0.249 E-score. Take ACCTCCAT: the binding signal is -0.0569 E-score. ACACGAGC: the binding signal was -0.0756 E-score.

With AGCCGGTC, the binding signal was -0.29 E-score.

ACATGACT displayed a binding signal of -0.0456 E-score. Next, ACCTAAGA: -0.106 E-score; ACACAGCA: 0.00236 E-score; AGGAACGG: -0.0555 E-score. AGGCGGAG: the binding signal is -0.214 E-score. The sequence AGCCGTCG returned a binding signal of -0.286 E-score. In turn, AAGAGAGG showed a binding signal of -0.197 E-score.

The sequence AATCTCGT came in with a binding signal of 0.436 E-score.

The sequence ACTCGGGG returned a binding signal of -0.056 E-score. Next, ACCCTAAG: -0.152 E-score; ACAGGACG: -0.177 E-score. The sequence ATGTCTCA registered a binding signal of 0.067 E-score. Sequence AGCGCGCT gave a binding signal of 0.0892 E-score. On to AACAGCAT, for which the binding signal was 0.0551 E-score.

AAATCAGG: the binding signal is 0.365 E-score. AGTCCGGA: the binding signal was -0.0362 E-score. The value for AGCATCAT was 0.092 E-score.

In turn, AACGGGGC gave a binding signal of -0.0659 E-score.

ACTTCTCC yielded a binding signal of -0.0954 E-score. AGGCTCTG registered a binding signal of -0.0622 E-score.

ATGTGTTG registered a binding signal of 0.00462 E-score. For the sequence ATGCTAAT, the binding signal was 0.121 E-score.

Take ACGATACA: the binding signal is 0.01 E-score. The sequence ACATCCCA yielded a binding signal of -0.000568 E-score.

As for CACCTGTC, the binding signal was -0.206 E-score.

As to AGTCTGTA, the binding signal turned out to be 0.0388 E-score.

In turn, ACTCACAC displayed a binding signal of -0.175 E-score. For the sequence ACTGTACT, the binding signal is -0.136 E-score. Turning to AGGGTGGA, the binding signal is -0.0254 E-score. The value for ATGTGGCG was -0.107 E-score. CAAGAGGC registered a binding signal of -0.282 E-score. With AAGATCGA, the binding signal was 0.225 E-score. For the sequence ATCCAACG, the binding signal was 0.172 E-score. The value for ACCATAGC was -0.12 E-score; that for ACCAATAA was 0.000427 E-score; that for CAAATTTG was 0.18 E-score. Consider ACTCAACC, for which the binding signal was -0.0527 E-score. ACTTAGCA gave a binding signal of -0.0836 E-score.

The sequence AACGCTTG came in with a binding signal of 0.0185 E-score.

AGGGAACA: the binding signal was -0.115 E-score. Regarding ATCTACGC, the binding signal was determined as 0.241 E-score.

AAGGGTAG registered a binding signal of -0.212 E-score. As to ACGCACCG, the binding signal was -0.0837 E-score. As for CAAGGGCC, the binding signal was -0.281 E-score. The sequence AGGTCAGA registered a binding signal of -0.129 E-score.

Take AACCAATC: the binding signal stood at 0.122 E-score.

In the case of CACGAGAC, the binding signal was -0.0715 E-score. Take AGAGCTAT: the binding signal is -0.0467 E-score. Take AGCTAGCC: the binding signal is -0.231 E-score. As for AAATTAGA, the binding signal is 0.195 E-score.

Take AGGGCATA: the binding signal is -0.121 E-score. With AAAACGTC, the binding signal was -0.00404 E-score. The value for ATATGGCG was 0.123 E-score.

In the case of CAAGTCCG, the binding signal was -0.132 E-score. Regarding ACACATGT, the binding signal is -0.22 E-score. Take AAAATTGG: the binding signal amounted to 0.0756 E-score. As for AATTGACT, the binding signal was -0.16 E-score. In turn, ACTGACCG gave a binding signal of -0.219 E-score. In the case of AAGAATAG, the binding signal was -0.077 E-score. Consider ACGAATCT, for which the binding signal was determined as 0.403 E-score.

The sequence AATCCGCA returned a binding signal of 0.395 E-score. Sequence AAACACTC displayed a binding signal of -0.146 E-score. For AAGATTAC, the binding signal amounted to 0.454 E-score. In the case of AAGGCATT, the binding signal is -0.114 E-score. ACTTGTAT returned a binding signal of 0.0481 E-score. Consider AGTGGGTC, for which the binding signal was -0.348 E-score. The value for ATGCAGAG was -0.0248 E-score; that for ACGCTCCG was -0.0827 E-score; that for AAGAGATA was 0.309 E-score.

AACACAAA returned a binding signal of 0.0878 E-score. AGGGGCCA showed a binding signal of -0.233 E-score. In the case of AATCGTCA, the binding signal came out at 0.228 E-score.

In turn, AGTAGTAA had a binding signal of 0.167 E-score.

Sequence AAACCCAG registered a binding signal of -0.0184 E-score. Sequence AGACTATG showed a binding signal of -0.0479 E-score. Next, ATGGGGCG: -0.136 E-score; CAAGTAGC: -0.173 E-score.

AAACTTTG: the binding signal was -0.00575 E-score. AATCTCTG gave a binding signal of 0.374 E-score. AGGGAACC registered a binding signal of -0.278 E-score. AAAGATCA displayed a binding signal of 0.157 E-score.

The sequence AGAAGGAA displayed a binding signal of -0.0248 E-score.

Take AGCCCCAG: the binding signal was -0.229 E-score.

As to AATTTCGC, the binding signal is 0.195 E-score. The sequence CAACAGTG gave a binding signal of -0.125 E-score. On to AATGCTAA, for which the binding signal amounted to 0.13 E-score. Take ACCAGGTC: the binding signal was -0.366 E-score. As for AGGGCCAA, the binding signal was -0.248 E-score. CAAGAGTA registered a binding signal of -0.0182 E-score. AGTCTGTC had a binding signal of -0.222 E-score. In turn, AGTAACCA had a binding signal of 0.0637 E-score. ATGTAGTA had a binding signal of 0.223 E-score. The sequence AAGCTGAA showed a binding signal of -0.219 E-score. In the case of CAAACTCA, the binding signal worked out at 0.0525 E-score.

In turn, ACCGTCAA had a binding signal of -0.267 E-score.

Sequence ATCCGTCG displayed a binding signal of 0.181 E-score. For the sequence AGAGGCGC, the binding signal is -0.325 E-score. The value for AAAGTGGT was -0.00884 E-score. The sequence AGTTCGTG yielded a binding signal of -0.139 E-score.
